# According to the supplement of paper PMC11369174, “Proteome-scale characterisation of motif-based interactome rewiring by disease mutations” (Molecular Systems Biology, 2024):
# This is one part of the list. The data scatter; read single values as rough.
# T1: ZMYND11_coiled-coil-MYND__Q15326_480_602
# T1 chain: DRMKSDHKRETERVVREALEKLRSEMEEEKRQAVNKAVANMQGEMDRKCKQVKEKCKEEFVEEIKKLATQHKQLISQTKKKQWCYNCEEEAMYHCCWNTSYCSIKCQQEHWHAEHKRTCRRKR
# Biological target: T1, ZMYND11_coiled-coil-MYND__Q15326_480_602
# Assay: mutation enrichment score (mutant vs wild-type peptide binding to bait); baits are purified protein domains named by gene / domain / UniProt id / residues; peptides come from disordered regions of human proteins; higher = mutation enhances binding relative to wild type
# Settings: wild-type window: …
# [1] = number of wild-type / mutant comparisons summed (bounds the score): 12, paper call: no_effect
binder,measurement,setting,value
IPAGGITTDQQPPNLISESAIPTSLGATNPLMNDGSNSGNI [L551I L551I],mutation enrichment score,[1],4.6
GFRLEEYLIGQSIGKGCSAAGYEATMPTLPQNLEVTKSTGL [V170G V170G],mutation enrichment score,[1],3.2
KIKKSTPAAGQPPHLTSAQDHDTISELASCLQRARELGARV [Q117H Q117H],mutation enrichment score,[1],-0.77
MAAQVAAREARDFREAPTLRSTSGAGLEAVGAVELEEEEE [R20S R20S],mutation enrichment score,"number of wild-type / mutant comparisons summed (bounds the score): 18, paper call: enhanced",6
PLHPTPPPASTAAGMPSLQHSTPPGMTPPQPAAPTQPSTPV [T872S T872S],mutation enrichment score,"number of wild-type / mutant comparisons summed (bounds the score): 18, paper call: no_effect",2.7
